{
  "source": "PubChem BioAssay AID651820",
  "about": "(National Center for Advancing Translational Sciences (NCATS), 2012)",
  "note": "Hit rate of the full screen: of about 340,000 compounds, about 12,000 (3.5%) were called active. Inconclusive results, whose numbers are uncertain, are shown with a selection of clear calls. Calls come from the whole dose curve; as a rule, active = well fitted inhibition curve with a large enough effect; inconclusive = small, poorly fitted or top-dose-only effect, or another doubt; inactive = no such curve, though single readings can be large or run the other way. No potency is given beside an inconclusive call; the fits are too rough. % is set by controls: 0 for no effect and ±100 for the full control effect; potency is the fitted concentration of half-maximal effect; tags give direction and shape of the fitted curve.",
  "data": [
    {"assay": "qHTS Assay for Inhibitors of Hepatitis C Virus (HCV)", "settings": "Huh7.5.1 HCVcc-Cre (HCVcc is cell-culture hepatitis C virus) infection, luciferase reporter, 44 h; activity change, negative = inhibition: at 41.8 µM (top of the series) unless noted", "how_it_was_run": "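After 44 h co-culture of compound, cells and HCVcc-Cre (~0.5 moi), substrate is added for 15 min at room temperature and luciferase measured over 15 sec. Cells were seeded at 1,000/well and pre-cultured 4 h.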", "values": [
      {"smiles": "Cc1ccccc1NC(=O)c1cccc(S(=O)(=O)Oc2ccc([N+](=O)[O-])cc2)c1", "Potency": "inconclusive [inhibitor, single point]"},
      {"smiles": "COc1ccc([N+](=O)[O-])cc1NC(=S)NC(NC(=O)C(c1ccccc1)c1ccccc1)C(Cl)(Cl)Cl", "note": "(stereo not drawn)", "Potency": "inconclusive [inhibitor, single point]"},
      {"smiles": "O=C(Nc1ccccc1N1CCN(c2ccccc2)CC1)c1ccccc1F", "Potency": "inconclusive [inhibitor, single point]"},
      {"smiles": "CC(OC(=O)/C=C/c1ccc2ccccc2n1)C(=O)NCc1ccccc1", "note": "(stereo not drawn)", "activity change, negative = inhibition": "inactive: -25.6%"},
      {"smiles": "CCOC(=O)C1=CN(Cc2cccc(F)c2)S(=O)(=O)N(C)C1c1ccccc1", "note": "(stereo not drawn)", "Potency": "inconclusive [inhibitor, single point]"},
      {"smiles": "CCCOC(=O)C1=C(C)NC2=C(C(=O)CCC2)C1c1cc(OC)ccc1OC", "note": "(stereo not drawn)", "activity change, negative = inhibition": "inactive: -6.27%"},
      {"smiles": "O=C1Nc2ccccc2S/C1=C/NCc1ccccc1Cl", "activity change, negative = inhibition": "inactive: -5.57%"},
      {"smiles": "Cc1ccc(S(=O)(=O)N2CCCCC2)cc1C(=O)N(CCc1ccccc1)Cc1ccccc1", "Potency": "inconclusive [inhibitor, single point]"},
      {"smiles": "CC(=O)NC(Cc1ccccc1)c1ccc2c(c1)OCCCO2", "note": "(stereo not drawn)", "activity change, negative = inhibition": "inactive: -13.3%"},
      {"smiles": "Cc1ccc(NC(=O)c2ccc(CSc3ccccn3)cc2)c(O)c1", "Potency": "inconclusive [inhibitor, single point]"},
      {"smiles": "CC[C@H](C)[C@@H](CNC)NC[C@@H](Cc1ccc(O)cc1)NCC(C)(C)C", "Potency": "inconclusive [inhibitor, single point]"},
      {"smiles": "COC(=O)c1ccc(NC(=O)c2cccc(OC)c2)cc1", "Potency": "inconclusive [inhibitor, partial curve]"},
      {"smiles": "Cc1nn(-c2ccccc2)c(C)c1-c1nnc(C(F)(F)F)o1", "activity change, negative = inhibition": "inactive: -11.2%"},
      {"smiles": "Cc1ccc(C(=O)Nc2ccncc2)cc1S(=O)(=O)N1CCOCC1", "activity change, negative = inhibition": "inactive: -5.69%"},
      {"smiles": "O=C(COC(=O)c1c2c(nc3ccccc13)CCN(Cc1ccccc1)C2)Nc1c(F)cccc1F", "Potency": "inconclusive [inhibitor, single point]"},
      {"smiles": "Cc1ccccc1-c1cccc([C@@H]2C[C@H]3C(CN2)CON3C)c1", "note": "(stereo partly drawn)", "Potency": "inconclusive [inhibitor, partial curve, poor fit]"},
      {"smiles": "Cc1ccc2c(c1)nnn2C1CCN(CC(=O)NCCc2nc3ccccc3[nH]2)CC1", "Potency": "inconclusive [inhibitor, partial curve]"},
      {"smiles": "CCOC(=O)c1ccc(NC(=O)/C=C/c2cccs2)cc1", "Potency": "inconclusive [inhibitor, partial curve, poor fit]"},
      {"smiles": "COc1cc(-c2nc3ccc(C)cn3c2Nc2ccc3c(c2)OCCO3)ccc1O", "activity change, negative = inhibition": "inactive: 6.74%"},
      {"smiles": "CCC1Sc2ccc(S(=O)(=O)Nc3ccc(OC)c(OC)c3)cc2NC1=O", "note": "(stereo not drawn)", "Potency": "active: 10 µM"},
      {"smiles": "COCCNC(=O)C(c1ccc(C)cc1)N(C(=O)CCC(=O)Nc1ccccn1)c1ccc(C)cc1", "note": "(stereo not drawn)", "activity change, negative = inhibition": "inactive: -3.83%"},
      {"smiles": "COc1cc(CCCN2CCNC[C@@H]2Cc2ccccc2)cc(OC)c1OC", "activity change, negative = inhibition": "inactive: -13.3%"},
      {"smiles": "CC(C)Cc1nc(SCc2cccnc2)c2c(=O)n(C)c(=O)n(C)c2n1", "Potency": "active: 10 µM"},
      {"smiles": "Cc1ccc(/C(N)=N/OC(=O)c2ccc3c(c2)OCO3)cc1", "Potency": "inconclusive [inhibitor, single point]"},
      {"smiles": "CCC(=O)NCCn1ccc2ccccc21", "activity change, negative = inhibition": "inactive: 23.4%"},
      {"smiles": "c1coc(CNc2nc3ccccc3n2CCN2CCOCC2)c1", "Potency": "inconclusive [inhibitor, partial curve, poor fit]"},
      {"smiles": "CC1CCN(C(=O)CSc2nc(C(C)C)nc3c2c(=O)n(C)c(=O)n3C)CC1", "Potency": "inconclusive [inhibitor, partial curve, poor fit]"},
      {"smiles": "CC1=[N+](CC(=O)c2ccccc2)CCn2cccc21", "Potency": "inconclusive [inhibitor, partial curve, poor fit]"},
      {"smiles": "CC(=O)c1c(O)ccc2c(-c3ccccc3)cc(=O)oc12", "activity change, negative = inhibition": "inactive: 15.2%"},
      {"smiles": "CCc1ccc(N2C(=O)NC(=O)/C(=C/c3cccn3CCOc3ccc(C)cc3)C2=O)cc1", "activity change, negative = inhibition": "inactive: -1.34%"},
      {"smiles": "Cc1sc(NC(=O)CSc2ncn(-c3ccccc3)n2)nc1-c1ccccc1", "Potency": "inconclusive [inhibitor, single point]"},
      {"smiles": "CCCCn1cnc2c(SCc3ccccc3Cl)nc(N)nc21", "Potency": "inconclusive [inhibitor, single point]"},
      {"smiles": "O=C(CN1C(=O)NC2(CCCC2)C1=O)OCc1cccc(Br)c1", "activity change, negative = inhibition": "inactive: 17%"},
      {"smiles": "COc1ccc(Cl)cc1NC(=O)NCCCl", "Potency": "inconclusive [inhibitor, partial curve, poor fit]"},
      {"smiles": "CC1CC(C)CN(S(=O)(=O)c2ccc3c(c2)CC(C)N3C(=O)C2CCC2)C1", "note": "(stereo not drawn)", "Potency": "inconclusive [inhibitor, single point]"},
      {"smiles": "CS(=O)(=O)c1ccc(C(=O)NCCN2C(=O)S/C(=C\\c3cccnc3)C2=O)cc1[N+](=O)[O-]", "Potency": "inconclusive [inhibitor, single point]"},
      {"smiles": "Cc1ccc(C)c(NC(=O)CN(C)C(=O)c2cc(-c3cccs3)nn2-c2ccccc2)c1", "Potency": "inconclusive [inhibitor, single point]"},
      {"smiles": "CC(=O)NCCc1nc2cc(NC(=O)c3ccc(F)cc3)ccc2n1C", "Potency": "inconclusive [inhibitor, single point]"},
      {"smiles": "Cc1ccc(NC(=O)c2ccc(F)cc2)cc1S(=O)(=O)N1CCCCCC1", "Potency": "inconclusive [inhibitor, single point]"},
      {"smiles": "C=Cc1cccc(NC(=O)c2ccc(NC(=O)c3ccco3)cc2)c1", "Potency": "active: 11.2 µM"},
      {"smiles": "N#C/C(=C\\c1c[nH]c2ccccc12)C(=O)NC1CCCC1", "Potency": "inconclusive [inhibitor, partial curve]"},
      {"smiles": "COc1cc(OC)c(N2CC(C(=O)Nc3cccc(C(=O)NC4CC4)c3)CC2=O)cc1Cl", "note": "(stereo not drawn)", "activity change, negative = inhibition": "inconclusive: -75.4% [inhibitor]"},
      {"smiles": "O=C(c1cc(-c2ccccc2)nc2ccccc12)N1N=C(C(F)F)CC1(O)C(F)F", "note": "(stereo not drawn)", "activity change, negative = inhibition": "inactive: -2.62%"},
      {"smiles": "OCCN1CCN(c2ncnc3sc(-c4ccccc4)cc23)CC1", "Potency": "inconclusive [inhibitor, single point]"},
      {"smiles": "CC1CC(C)CN(C(=O)CSc2nnc(-c3ccco3)o2)C1", "note": "(stereo not drawn)", "activity change, negative = inhibition": "inactive: 6.66%"},
      {"smiles": "O=C1c2ccccc2C(=O)N1CC(=O)N1c2ccccc2Sc2ccc(C(F)(F)F)cc21", "activity change, negative = inhibition": "inactive: 11.5%"},
      {"smiles": "O=C(NCc1cccs1)C1CC(c2ccc(Cl)cc2)=NO1", "note": "(stereo not drawn)", "activity change, negative = inhibition": "inactive: -9.9%"},
      {"smiles": "COc1ccc(-c2cc(C(=O)Nc3cc(S(=O)(=O)N4CCOCC4)ccc3N3CCOCC3)c3ccccc3n2)cc1", "Potency": "inconclusive [inhibitor, single point]"},
      {"smiles": "Cc1nn(CCC(=O)NNC(=S)Nc2ccc(F)cc2)c(C)c1[N+](=O)[O-]", "Potency": "inconclusive [inhibitor, single point]"},
      {"smiles": "O=C(CSc1nc(-c2ccccc2)nn1C(=O)c1ccccc1)Nc1cccc([N+](=O)[O-])c1", "Potency": "active: 25.1 µM"},
      {"smiles": "COc1cccc(C2=CC(c3cc(OC)ccc3OC)n3nnnc3N2)c1", "note": "(stereo not drawn)", "Potency": "inconclusive [inhibitor, partial curve]"},
      {"smiles": "CC(=O)c1ccc(NC(=O)COC(=O)c2ccc(F)cc2F)cc1", "activity change, negative = inhibition": "inactive: 11.5%"},
      {"smiles": "COCCn1c(C)cc(C(=O)COC(=O)c2ccccc2Br)c1C", "activity change, negative = inhibition": "inactive: -17.9%"},
      {"smiles": "COc1ccc(SCCc2nnc(-c3ccccc3)o2)cc1", "activity change, negative = inhibition": "inactive: -4.57%"},
      {"smiles": "O=c1c2ccccc2c(C=Nc2ccc(S(=O)(=O)N3CCCCC3)cc2)c(O)n1-c1ccc(Cl)cn1", "activity change, negative = inhibition": "inactive: 5.95%"},
      {"smiles": "COc1ccc2[nH]c3c(c2c1)CCNC3C1CC=C(C)CC1", "note": "(stereo not drawn)", "Potency": "inconclusive [inhibitor, single point]"},
      {"smiles": "CN(C(=S)Nc1ccccc1F)C1(c2ccccc2Cl)CCCCC1=O", "note": "(stereo not drawn)", "activity change, negative = inhibition": "inactive: -4.64%"},
      {"smiles": "CCOC(=O)CCCCC(=O)c1[nH]c(=O)[nH]c1CSc1nnc2c3ccccc3n(C(C)C)c2n1", "activity change, negative = inhibition": "inactive: 12.8%"},
      {"smiles": "O=C(Nc1nonc1-c1ccc(Cl)cc1)c1ccccc1", "activity change, negative = inhibition": "inactive: 3.24%"},
      {"smiles": "C=C(C)c1ccc(C(C)(C)NC(=O)NCc2ccco2)cc1", "Potency": "inconclusive [inhibitor, partial curve]"},
      {"smiles": "O=C(Nc1ccc(Cc2ccncc2)cc1)c1ccc([N+](=O)[O-])o1", "Potency": "inconclusive [inhibitor, single point]"},
      {"smiles": "O=C(COC(=O)C1CCCO1)Nc1nc(-c2ccc(F)cc2)cs1", "note": "(stereo not drawn)", "Potency": "inconclusive [inhibitor, single point]"},
      {"smiles": "COc1ccc(-c2nnn(-c3cc(Cl)cc(Cl)c3)c2N)cc1", "Potency": "inconclusive [inhibitor, partial curve, poor fit]"},
      {"smiles": "CCOc1ccc(CN2CCN(C(=O)c3ccccc3)CC2)cc1", "Potency": "active: 11.2 µM"},
      {"smiles": "CC1CCc2c(C(=O)Nc3ccccn3)csc2C1", "note": "(stereo not drawn)", "Potency": "inconclusive [inhibitor, single point]"},
      {"smiles": "O=C(Cn1cnc2c(nnn2Cc2ccc(F)cc2)c1=O)Nc1ccc2c(c1)OCCO2", "activity change, negative = inhibition": "inactive: 3.75%"},
      {"smiles": "Fc1ccccc1Cc1noc(CN2CCN(c3ccc(Cl)cn3)CC2)n1", "Potency": "inconclusive [inhibitor, single point]"},
      {"smiles": "COc1cc(OC)cc(C(=O)NC(=S)NNC(=O)c2cnccn2)c1", "Potency": "inconclusive [inhibitor, partial curve]"},
      {"smiles": "CC1CCCCN1C(=O)CSc1ccc(-c2ccc(F)cc2)nn1", "note": "(stereo not drawn)", "Potency": "inconclusive [inhibitor, single point]"},
      {"smiles": "COc1ccc(-c2nnc(N3CCOCC3)c3ccccc23)cc1", "activity change, negative = inhibition": "inactive: -19.1%"},
      {"smiles": "Cc1cc(/C=C2\\NC(=S)N(C)C2=O)ccc1N1CCCC1", "Potency": "inconclusive [inhibitor, single point]"},
      {"smiles": "CCOC(=O)c1sc(N)c(C(=O)Nc2ccccc2)c1C", "activity change, negative = inhibition": "inactive: 12.3%"},
      {"smiles": "COc1ccc(OC)c(NC(=O)c2ccc(CN3CCc4ccccc4C3)cc2)c1", "Potency": "inconclusive [inhibitor, partial curve]"}
    ]}
  ]
}
